Screen size: about 310,000 compounds; about 2,200 (0.71%) showed an effect of 50% or more. The effect is printed as a negative number. The list shows a part of the results.
Target: human ether-à-go-go-related gene (hERG) potassium channel (human, UniProt Q12809)
Test: primary screen, population patch clamp on CHO cells stably expressing hERG

Sequence of human ether-à-go-go-related gene (hERG) potassium channel (Q12809 whole entry, looked up): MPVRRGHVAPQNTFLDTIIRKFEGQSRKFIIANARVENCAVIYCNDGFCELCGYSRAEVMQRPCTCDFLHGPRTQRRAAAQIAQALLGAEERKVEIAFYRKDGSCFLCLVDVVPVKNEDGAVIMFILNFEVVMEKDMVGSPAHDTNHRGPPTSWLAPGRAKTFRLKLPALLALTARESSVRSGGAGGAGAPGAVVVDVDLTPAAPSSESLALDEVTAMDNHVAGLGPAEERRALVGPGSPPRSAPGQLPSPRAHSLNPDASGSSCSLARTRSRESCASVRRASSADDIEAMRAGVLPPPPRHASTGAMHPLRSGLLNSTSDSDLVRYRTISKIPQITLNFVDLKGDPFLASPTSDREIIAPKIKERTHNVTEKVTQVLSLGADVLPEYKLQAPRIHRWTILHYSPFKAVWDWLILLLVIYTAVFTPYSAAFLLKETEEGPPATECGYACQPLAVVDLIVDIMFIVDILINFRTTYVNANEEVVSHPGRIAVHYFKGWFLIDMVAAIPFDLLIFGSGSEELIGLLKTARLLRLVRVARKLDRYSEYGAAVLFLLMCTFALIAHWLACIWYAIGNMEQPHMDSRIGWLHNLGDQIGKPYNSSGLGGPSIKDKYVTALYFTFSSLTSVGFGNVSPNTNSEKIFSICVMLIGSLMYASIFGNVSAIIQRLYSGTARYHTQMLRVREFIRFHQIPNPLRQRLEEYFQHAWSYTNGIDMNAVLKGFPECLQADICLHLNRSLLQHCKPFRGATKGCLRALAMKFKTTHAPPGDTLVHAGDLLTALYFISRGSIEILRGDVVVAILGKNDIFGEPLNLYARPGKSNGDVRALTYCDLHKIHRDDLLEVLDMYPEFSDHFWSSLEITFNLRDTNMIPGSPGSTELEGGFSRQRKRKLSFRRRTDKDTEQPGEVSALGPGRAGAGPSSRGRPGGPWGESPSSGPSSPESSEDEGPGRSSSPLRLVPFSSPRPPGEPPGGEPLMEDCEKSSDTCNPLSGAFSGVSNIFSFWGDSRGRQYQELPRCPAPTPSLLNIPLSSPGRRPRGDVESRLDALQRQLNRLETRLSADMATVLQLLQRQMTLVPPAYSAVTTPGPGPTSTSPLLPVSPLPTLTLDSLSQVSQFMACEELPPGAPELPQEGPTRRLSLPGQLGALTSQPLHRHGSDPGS

Structure (SMILES) | hERG current change (%, negative = inhibition) at 1uM
CN(/C(=N/S(=O)(=O)c1cccs1)c1ccccc1)c1ccccc1 | -1.46%
Cc1nn2c(nc1=O)NNC2(C)C(C)(C)C (stereo not shown) | 11.3%
COc1ccc(-c2[nH]ncc2CN2CCC(N3CCSCC3)CC2)cc1F | 3.77%
CCOC(=O)c1ccc(S(=O)(=O)Nc2cc(C(=O)O)ccc2Cl)cc1 | 5.69%
COc1ccc(NC(=O)/C=C/c2ccc3c(c2)OCO3)cc1 | 4.24%
CCOc1ccccc1OC(=O)c1cc2ccccc2oc1=O | 9.48%
CCOc1ccc(OCC)c(NC(=O)CN(C)S(=O)(=O)c2cnc[nH]2)c1 | 9.52%
COC(=O)[C@@H]1C2CCC(C(=O)Nc3ccccc3)(CC2)[C@@H]1C(=O)OC | 7.72%
NC(=O)c1ccsc1NC(=O)CS(=O)(=O)c1ccccc1 | 16.9%
CSc1nnc(C)c(/C=C/NOCc2ccc(Cl)cc2)n1 | 7.05%
Cc1ccc2c(c1)C1CN(C)CCC1N2S(=O)(=O)c1cccc(F)c1 (stereo not shown) | 7.82%
CCOC(=O)c1c(NC(=O)CSc2nnc(CN3CCOCC3)n2C)sc2c1CCCC2 | -5.11%
O=C(COc1nsnc1N1CCOCC1)N/N=C/c1ccccc1O | 6.33%
COc1ccc(CCC(C)NCC2CCCCC2)cc1 (stereo not shown) | 9.01%
COc1ccc(N2CCN(C(=O)c3cn(C)c(=O)c4c3c3ccccc3n4C)CC2)cc1 | 2.57%
Cc1ccc(N(C(=O)c2sc(C)nc2C)C(C(=O)NC(C)(C)C)c2ccncc2)cc1 (stereo not shown) | 18.7%
COc1ccc(NC(=O)CC2C(=O)N(c3ccc(Cl)cc3)C(=S)N2NC(=O)c2cccc(F)c2)cc1 (stereo not shown) | 13.4%
COc1ccc(S(=O)(=O)N2CCOCC2)cc1NC(=O)Cc1ccc(Cl)c(Cl)c1 | 7.37%
CCC(=O)c1ccc(N2CCN(C(=O)c3ccc(F)cc3)CC2)c(F)c1 | -10.2%
O=C1OC(Nc2nc3ccccc3s2)c2ccccc21 (stereo not shown) | 2.78%
CC[C@@]12C(=O)N(c3cccc(Cl)c3)C(=O)N1[C@H](c1cccc(C)c1)[C@@H]1C(=O)N(Cc3ccccc3)C(=O)[C@@H]12 | 6.88%
Cc1nnc(SCC(=O)N(C)C2CCS(=O)(=O)C2)n1Cc1ccccc1 (stereo not shown) | 1.71%

Structure (SMILES) | hERG current change (%, negative = inhibition) at 1uM
CCOC(=O)Cc1c(Sc2ccccc2)c2ccccc2n1C | 2.23%
Cc1ccccc1/C=C/c1nc2ccccc2c(=O)[nH]1 | 12.2%
O=S(=O)(Nc1cccc(-n2cnnn2)c1)c1cc(Cl)ccc1Cl | 11.4%
COc1cccc(-n2nnc3c(=O)n(CC(=O)N4CCC(C)CC4)cnc32)c1 | 12.3%
COc1ccc(OC)c(NC(=O)CSc2nc3ccccc3c(=O)n2CCNC(C)=O)c1 | 1.72%
CN1CCN(C(=O)c2ccc(CN(c3ccccc3)S(=O)(=O)c3ccccc3)cc2)CC1 | -4.01%
CC(=O)Nc1nc(C)c(-c2csc(Nc3cccc([N+](=O)[O-])c3)n2)s1 | 5.4%
CCn1c(=S)sc2c(=O)n(CC(=O)Nc3cccc(OC)c3)c(C)nc21 | 16.9%
CCCCCCCCNc1nc(Cl)nc(NCc2ccco2)n1 | 12.6%
CC(C)CNC(=S)N1CCC(Cc2ccccc2)CC1 | 12.4%
COc1ccc(-c2csc3nc(C)nc(N4CCN(c5ccc(C(C)=O)cc5)CC4)c23)cc1OC | 11.4%
O=C(CN1C(=O)NC2(CCCCCC2)C1=O)c1ccc(Cl)cc1 | 6.98%
COc1cc(-n2c(=O)c3ccccc3n(CC(=O)c3ccc(Br)cc3)c2=O)cc(OC)c1OC | 3.14%
Cc1ccc(NC2=CC(=O)CC(c3ccco3)C2)c(N)c1 (stereo not shown) | 9.31%
O=C(O)c1ccc2c(c1)C(=O)N(c1cccc(S(=O)(=O)Nc3cccc(C(F)(F)F)c3)c1)C2=O | 15.9%
COc1ccc(Cl)cc1S(=O)(=O)n1ccnc1 | 7.87%
CCOC(=O)Cc1csc(SCC(=O)Nc2sc3c(c2C(N)=O)CCC3)n1 | -3.74%
CCC1CCCCN1C(=O)c1c[nH]c2ccc(S(=O)(=O)N(C)c3ccc(Cl)cc3)cc2c1=O (stereo not shown) | -9.42%
COC(=O)c1[nH]c(C)c(/C(O)=C2\C(=O)C(=O)N(CCN(C)C)C2c2cc(OC)ccc2OC)c1C (stereo not shown) | 15.2%
CC(=O)N(C(C)=O)c1c(C#N)c(C)n(-c2ccccc2)c1C(=O)c1ccccc1 | -1.51%
COc1ccc(-c2ccccc2)cc1NCc1ccc(OC)c(OC)c1 | 6.76%
